Measurements from article PMC4336329 (PLoS ONE, 2015).
Among all 310,000 compounds or so, about 14,000 (4.5%) showed an effect of 50% or more. Effects have a minus sign here. This is one part of the list.

target: human ether-à-go-go-related gene (hERG) potassium channel (human, UniProt Q12809); experiment: primary screen, population patch clamp on CHO cells stably expressing hERG
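Also: peak tail current of the secondary pulse compared with the same well before compound.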

Chain of human ether-à-go-go-related gene (hERG) potassium channel (Q12809 whole entry, looked up): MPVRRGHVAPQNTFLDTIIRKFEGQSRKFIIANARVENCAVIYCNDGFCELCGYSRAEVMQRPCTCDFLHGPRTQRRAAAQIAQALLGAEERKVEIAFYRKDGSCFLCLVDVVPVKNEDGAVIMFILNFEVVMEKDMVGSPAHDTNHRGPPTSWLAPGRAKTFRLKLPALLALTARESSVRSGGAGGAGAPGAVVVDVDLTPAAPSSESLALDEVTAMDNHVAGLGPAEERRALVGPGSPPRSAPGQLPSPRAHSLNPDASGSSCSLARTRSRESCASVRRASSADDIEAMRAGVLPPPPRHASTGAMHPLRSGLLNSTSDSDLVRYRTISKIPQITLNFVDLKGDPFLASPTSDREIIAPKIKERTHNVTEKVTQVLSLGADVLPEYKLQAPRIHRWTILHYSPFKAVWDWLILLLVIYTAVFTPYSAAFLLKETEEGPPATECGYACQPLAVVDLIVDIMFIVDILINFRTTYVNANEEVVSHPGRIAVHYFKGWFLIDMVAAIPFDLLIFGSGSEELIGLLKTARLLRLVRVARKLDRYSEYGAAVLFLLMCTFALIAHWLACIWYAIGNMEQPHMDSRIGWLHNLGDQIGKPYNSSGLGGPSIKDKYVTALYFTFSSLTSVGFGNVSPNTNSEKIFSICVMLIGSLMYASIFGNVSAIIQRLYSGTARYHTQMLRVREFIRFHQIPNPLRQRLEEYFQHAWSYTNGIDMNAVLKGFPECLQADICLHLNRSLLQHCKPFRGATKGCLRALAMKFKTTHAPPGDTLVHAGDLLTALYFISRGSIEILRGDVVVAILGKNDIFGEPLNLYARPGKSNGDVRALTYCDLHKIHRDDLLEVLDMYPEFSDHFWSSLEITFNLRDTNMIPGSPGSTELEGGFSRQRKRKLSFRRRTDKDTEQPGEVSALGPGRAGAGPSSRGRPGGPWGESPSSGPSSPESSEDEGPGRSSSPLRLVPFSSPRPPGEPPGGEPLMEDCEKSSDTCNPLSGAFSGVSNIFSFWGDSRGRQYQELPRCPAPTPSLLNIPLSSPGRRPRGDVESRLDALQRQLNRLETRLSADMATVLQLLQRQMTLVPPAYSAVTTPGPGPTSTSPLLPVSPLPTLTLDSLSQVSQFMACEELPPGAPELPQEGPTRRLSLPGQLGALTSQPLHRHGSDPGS

Row | Compound | hERG current change (%, negative = inhibition) at 10uM
1 | COc1ccccc1NC(=O)CSc1ccc2nnc(-c3ccncc3)n2n1 | -31.3%
2 | COc1cccc(OCCN2CCN(c3ncnc4c3cnn4-c3ccccc3)CC2)c1 | -2.07%
3 | O=C1NCC(=O)N2CCC[C@@H]12 | -7.68%
4 | CC(Sc1ccccn1)C(=O)Nc1ccc(S(N)(=O)=O)cc1 (stereo not shown) | 19.5%
5 | Cc1ccc(Sc2ncccc2C(=O)O)c(C)c1 | 7.39%
6 | O=C(NCCN1CCCC1)C1(S(=O)(=O)c2ccc(Cl)cc2)CC1 | 11.7%
7 | CC(=O)c1ccc(Nc2nc(-c3cccnc3)cs2)cc1 | 6.18%
8 | Cc1nc(COc2ccc(C(=O)NCc3ccccc3CN3CCCCC3)cc2)cs1 | -52.5%
9 | O=C(Cc1ccccc1)N/N=C/c1cc(Br)cs1 | 4.39%
10 | O=C1CCC(C(=O)Nc2ccc(OC(F)F)cc2)N1 (stereo not shown) | 3.6%
11 | CCCn1c(NCc2ccc3c(c2)OCO3)nc2ccccc21 | 12.6%
12 | CC1CCN(C(=O)c2ccc(NS(=O)(=O)c3ccccc3)cc2)CC1 | -0.415%
13 | COCCn1c(SCC(=O)Nc2cccnc2Cl)nc2ccccc2c1=O | 4.53%
14 | c1ccc2c(NC3=NCCS3)cccc2c1 | 10.8%
15 | CCOc1ccc(Cl)cc1CNc1nnnn1CC | 9.54%
16 | CCOC(=O)c1c(-c2cccc(N)c2)cn2ccccc12 | 19.3%
17 | CCc1cccc(NC(=O)CCCn2nc(C)c3c(C)n(-c4ccccc4)nc3c2=O)c1 | -10.1%
18 | CCOc1ccc(N(CC(=O)N2CCCC2)S(=O)(=O)c2ccc(F)cc2)cc1 | -12.2%
19 | COc1ccc(-c2coc3c(CN4CCCCC4)c(O)c(CN4CCCCC4)c(O)c3c2=O)cc1 | -79.2%
20 | CC12CN3CC(C)(CN(C1)C3c1c[nH]c3ccccc13)C2=O (stereo not shown) | -9.4%

Row | Compound | hERG current change (%, negative = inhibition) at 10uM
21 | COc1ccc(CNc2nc(S(=O)(=O)c3ccccc3)c(Cl)s2)cc1OC | 1.39%
22 | COc1cccc2c1OCC(C(=O)O)C2 (stereo not shown) | 37%
23 | COCCCN1CC(=O)N2C(c3cccc(C)c3)c3[nH]c4ccccc4c3C[C@H]2C1=O (stereo partly shown) | -40.8%
24 | CC1(C)Nc2ccccc2C(=O)N1c1ccc(Br)cc1 | 8.99%
25 | CN(C)CC(C)(C)CNCc1cc(=O)oc2ccc3ccccc3c12 | -1.16%
26 | CN(C)S(=O)(=O)c1ccc(NC(=S)NC(=O)c2ccc(Br)o2)cc1 | 20.1%
27 | Cc1nc(-c2ccccc2)cc(=O)[nH]1 | 6.48%
28 | NS(=O)(=O)c1ccc(CCNc2ncnc3sccc23)cc1 | 5.9%
29 | CCN(CC)CCCNC(=O)Cn1nc([N+](=O)[O-])c(Cl)c1C | 24.2%
30 | CCOc1ccc(NC(=O)c2nnn(CC(=O)Nc3ccccc3OCC)c2N)cc1 | -7.22%
31 | CCOC(=O)Nc1ccc(S(=O)(=O)Nc2cc(C)nc(C)n2)cc1 | 3.68%
32 | Cc1ccc(-c2nc(Nc3cccc(C)c3)sc2CC(=O)O)cc1 | 5.09%
33 | O=C(Cn1cc(C(F)(F)F)cc(Cl)c1=O)NCc1ccccc1 | 27.1%
34 | CC1CCN(C(=O)c2ccc3c(Cl)c4c(nc3c2)CCCC4)CC1 | -23.7%
35 | CCc1ccc(NC(=S)N2CCN(c3cccc(C(F)(F)F)c3)CC2)cc1 | 3.59%
36 | C=C1[C@H]2C[C@H]3[C@H]4N5C[C@]6(C)CCC[C@]47[C@H]([C@H]2O)[C@]3(C[C@]5(O)[C@H]67)[C@@H]1O | 5.56%
37 | Cc1noc(C)c1C(=O)N(CC(C)C)c1nc2ccccc2s1 | 4.69%
38 | Cc1ccccc1Cn1cc(NC(=O)c2noc3c2CC(C(C)(C)C)CC3)cn1 (stereo not shown) | 0.814%
39 | COC(=O)CSc1nnc(-c2cccnc2)o1 | 12.8%
40 | CCOc1ccc(NC(=O)NC(C)CC)cc1 (stereo not shown) | 2.89%

Row | Compound | hERG current change (%, negative = inhibition) at 10uM
41 | Cc1cc(C)nc(/N=C2\NC(=O)CC3C(=O)NCCN23)n1 (stereo not shown) | 10.6%
42 | CC(C)N1CCN(C2CSCCSC2)CC1CCO (stereo not shown) | -10.4%
43 | S=c1[nH]c2cc(Cl)c3cccnc3c2o1 | 21%
44 | CN1CCN(C(=O)C2=C[C@H](C(C)(C)C)C[C@H](OCCCCO)O2)CC1 | -1.76%
45 | COc1cc(/C=N/n2cnnc2)ccc1OC(=O)c1cccnc1 | 0.698%
46 | O=C1NC(=O)N(Cc2ccc(F)cc2)C(=O)/C1=C\c1ccoc1 | 8.81%
47 | O=C(Nc1ccc(Oc2ccccc2)cc1)C1CCCO1 (stereo not shown) | -4.83%
48 | CCOC(=O)CSc1nc2c(c(=O)[nH]c(=O)n2C)n1Cc1ccccc1 | -32.9%
49 | CCOc1ccc(C(=O)C[n+]2cccc3cc(C)ccc32)cc1.[Br-] | -47.9%
50 | ClCC1CN(Cc2ccccc2Cl)CCO1 (stereo not shown) | 33.3%
51 | Nc1c(C(=O)Nc2nccs2)sc2nc(-c3cccs3)cc(C(F)(F)F)c12 | 22.2%
52 | CCOC(=O)C1=C(C)N(c2ccccc2)C(=O)NC1c1cccc([N+](=O)[O-])c1 (stereo not shown) | -37%
53 | COc1ccc(CCC(=O)N(C)CC(=O)Nc2ccc(Cl)c(C(F)(F)F)c2)cc1 | 22.2%
54 | O=c1[nH]c2ccccc2cc1CN(Cc1cccnc1)S(=O)(=O)c1ccc([N+](=O)[O-])cc1 | -23.9%
55 | COc1ccc(N2CC(C(=O)Nc3ccc(S(=O)(=O)N4CCCC4)cc3)CC2=O)cc1 (stereo not shown) | 8.44%
56 | CCOC(=O)CSc1nc(N)nc(C)c1Br | -9.9%
57 | CCOC(=O)N1CC=C2C(C#N)=C(N)C(C#N)(C#N)[C@H](c3ccsc3)[C@H]2C1 | 7.66%
58 | CCOC(=O)N1CCN(C(=O)C(CC(C)C)NS(=O)(=O)c2ccc3c(c2)oc(=O)n3C)CC1 (stereo not shown) | -12.4%
